Measured values as given in PubChem BioAssay AID1347165 (National Center for Advancing Translational Sciences (NCATS), 2019).
Several values for one entry are separate records, joined by “and”; a condition that tells them apart may be missing. Equal entries are not always repeated. The whole screen tested about 220,000 compounds, of which about 5,700 (2.6%) were called active. The inconclusive results got no clear call from the source; some entries with a clear call stand among them for comparison. Calls come from the whole dose curve; as a rule, active = well fitted inhibition curve with a large enough effect; inconclusive = small, poorly fitted or top-dose-only effect; inactive = no such curve, though single readings can be large or run the other way. A potency beside an inconclusive call is a rough fit, not a confirmed value.

target: Lysine-specific demethylase 5B (Homo sapiens) (UniProt Q9UGL1); experiment: Primary screen for KDM5B Histone Demethylases FDH-coupled qHTS; details: FDH-coupled NADH fluorescence (FDH is formaldehyde dehydrogenase); activity change, negative = inhibition: at 57.7 µM (top of the series) unless noted; note: nearly all actives have a fitted effect of over 70% in size; for activity change, negative = inhibition: 0% is about no effect
Chain of UniProt Q9UGL1 (Q9UGL1 whole entry, looked up): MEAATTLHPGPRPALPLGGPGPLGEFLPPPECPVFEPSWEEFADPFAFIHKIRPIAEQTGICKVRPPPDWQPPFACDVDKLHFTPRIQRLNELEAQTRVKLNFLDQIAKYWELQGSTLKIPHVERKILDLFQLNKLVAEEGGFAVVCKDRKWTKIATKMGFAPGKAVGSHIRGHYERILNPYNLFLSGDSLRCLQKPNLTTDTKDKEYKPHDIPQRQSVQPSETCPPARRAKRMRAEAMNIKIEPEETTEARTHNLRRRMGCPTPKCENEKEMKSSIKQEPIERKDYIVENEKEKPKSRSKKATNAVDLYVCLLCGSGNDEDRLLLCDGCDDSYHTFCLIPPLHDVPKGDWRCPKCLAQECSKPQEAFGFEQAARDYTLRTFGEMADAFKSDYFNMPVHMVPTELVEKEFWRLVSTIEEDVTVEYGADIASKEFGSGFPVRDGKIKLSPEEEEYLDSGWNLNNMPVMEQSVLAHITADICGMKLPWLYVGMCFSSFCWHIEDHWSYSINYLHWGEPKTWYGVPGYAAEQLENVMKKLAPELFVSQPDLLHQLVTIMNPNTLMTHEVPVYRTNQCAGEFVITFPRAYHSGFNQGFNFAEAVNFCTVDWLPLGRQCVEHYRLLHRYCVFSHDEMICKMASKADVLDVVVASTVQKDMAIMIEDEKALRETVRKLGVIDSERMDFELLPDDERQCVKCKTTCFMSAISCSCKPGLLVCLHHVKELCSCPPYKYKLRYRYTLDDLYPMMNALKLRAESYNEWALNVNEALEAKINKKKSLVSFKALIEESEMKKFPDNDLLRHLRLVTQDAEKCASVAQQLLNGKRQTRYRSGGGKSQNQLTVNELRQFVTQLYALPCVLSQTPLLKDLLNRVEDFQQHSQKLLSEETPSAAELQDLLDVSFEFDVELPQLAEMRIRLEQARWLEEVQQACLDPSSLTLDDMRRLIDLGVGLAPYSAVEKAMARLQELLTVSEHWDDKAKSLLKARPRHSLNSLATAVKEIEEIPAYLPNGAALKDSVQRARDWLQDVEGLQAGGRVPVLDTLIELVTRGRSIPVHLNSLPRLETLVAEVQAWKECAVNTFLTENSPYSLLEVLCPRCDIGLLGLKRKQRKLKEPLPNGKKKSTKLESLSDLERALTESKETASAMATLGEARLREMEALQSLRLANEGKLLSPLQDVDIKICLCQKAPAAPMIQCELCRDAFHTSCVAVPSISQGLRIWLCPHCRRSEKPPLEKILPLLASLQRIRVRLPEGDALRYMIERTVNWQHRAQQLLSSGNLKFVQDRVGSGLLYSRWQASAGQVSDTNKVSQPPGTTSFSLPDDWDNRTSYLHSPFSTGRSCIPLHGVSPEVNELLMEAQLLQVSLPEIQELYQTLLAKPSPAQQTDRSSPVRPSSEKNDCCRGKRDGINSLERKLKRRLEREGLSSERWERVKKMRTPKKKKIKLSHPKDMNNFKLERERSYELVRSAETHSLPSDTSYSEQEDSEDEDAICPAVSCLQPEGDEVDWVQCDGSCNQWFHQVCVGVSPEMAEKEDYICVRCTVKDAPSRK
From the text: Assay Submitter (PI): Qin Yan, Ph.D. (Yale University) and Xiaodong Cheng, Ph.D. (MD Anderson) This project was funded as part of the NCI NEXT Program and Chemical Biology Consortium (CBC) The histone demethylases, KDM5A and KDM5B catalyze the demethylation of lysine 4 on histone H3 (H3K4me3/2). They are overexpressed in a variety of cancers and have been implicated in cancer cell growth, metastasis, drug resistance, and tumor growth. KDM5A is amplified and overexpressed in breast and gastric cancer; and is translocated in leukemia. While KDM5B is highly expressed in human mammary tumors and breast cancer cell lines, but not in normal adult breast tissue. Moreover, knockdown of KDM5B leads to upregulation of tumor suppressor genes, including BRCA1. The goal of this project is to employ qHTS to identify selective small molecule inhibitors of KDM5A/B demethylase activity to better understand the role of KDM5 in cancer and to develop novel therapies. We employed an FDH-coupled assay previously reported by Sakurai et al. to monitor in vitro KDM5 demethylase activity. Compounds showing dose response inhibition are re-acquired, validated, and tested for non-specific interference with the formaldehyde dehydrogenase (FDH) counterscreen. True inhibitors are validated using an AlphaLisa secondary screen, which employs an H3K4(me2-1)-specific antibody to monitor demethylation of a biotin-tagged H3K4(me3) peptide substrate. Inhibitors are profiled against KDM4A and KDM6A AlphaLisa counterscreens to determine level of demethylase specificity; and against the TruHits counterscreen to eliminate non-specific inhibitory activity on the AlphaLISA detection method. Selective inhibitors identified from the primary and secondary screening are tested in cells using immunofluorescence to monitor global H3K4 tri-methylation as a measure of KDM5A/B inhibition. Early Translation Branch (ETB) National Center for Advancing Translational Sciences (NCATS), Rockville, MD National Institute of Health (NIH), Bethesda, Maryland [1] Sakurai, M et al. A miniaturized screen for inhibitors of Jumonji histone demethylases. Mol Biosyst. 2010 Feb;6(2):357-64. doi: 10.1039/b912993f. Epub 2009 Oct 8.
Materials: 1536-well Black, solid bottom, medium binding assay plate is purchased from Greiner Bio-one. The enzymes (KDM5B) and substrate (H3K4me3/2) are provided by the principal investigators. The buffer for this assay is composed of 50mM HEPES at pH 7.5 with 0.01% Tween-20. FDH coupled Demethylase qHTS protocol: Three microliter enzyme mix (buffer + 200nM KDM5BDeltaAP final concentration) is dispensed into the assay plate using the BioRAPTR Flying Reagent Dispenser (FRD; […]). Compound (at various final concentration) and control solution is pin transferred to the assay plate using the Kalypsys 1536-pin tool apparatus. The assay plate is incubated for 10 min at room temperature followed by addition of 1uL substrate mix (buffer + 100uM ascorbic acid, 50uM ferrous ammonium sulfate, 12.5uM H3K4Me3, 25uM a-ketoglutarate, 0.25 mM NAD+, 0.25 U/mL formaldehyde dehydrogenase using the FRD yielding a total reaction volume of 4 uL. Initial fluorescence (Read1) is detected using the PerkinElmer ViewLux plate reader equipped with 340 nm excitation and 450 nm emission filters. The final fluorescence (Read2) signal is obtained after 30 min of room temperature incubation. Delta RFU is calculated (Read2 - Read1) and is used to generated dose response curves.
Potency is the fitted concentration of half-maximal effect; tags give direction and shape of the fitted curve.

Compound	Potency	activity change, negative = inhibition
Cc1ccc2[nH]c(=O)c3cc(C(=O)NC4CCC(C)CC4)sc3c2c1 (stereo not given)	inconclusive: 22.4 µM [inhibitor, partial curve, poor fit]	
CC(C)(C)C(=O)/C(C#N)=C/c1ccccc1OCc1ccc(Cl)cc1		inactive: -20%
CCCCN(C)C(=O)CSc1nc2ccccc2nc1Cc1ccc(C)cc1		inactive: -7.61%
Cc1ccc(S(=O)(=O)c2nc(-c3ccccc3Cl)oc2NCCCN2CCOCC2)cc1	inconclusive: 39.8 µM [inhibitor, partial curve, poor fit]	
CCCn1ccc2sc(C)c(C(=O)O)c2c1=O		inactive: 3.65%
O=c1oc2cc([N+](=O)[O-])ccc2nc1/C=C(\O)c1cccc(Br)c1	inconclusive: 3.16 µM [inhibitor, full curve, poor fit]	
O=C(NC1CCCCCC1)c1cnn2c(C(F)(F)F)cc(-c3ccco3)nc12		inactive: -20.9%
Cc1cc(O)c2c(C)c(CC(=O)NCCc3cccc(F)c3)c(=O)oc2c1	inconclusive: 14.1 µM [inhibitor, single point]	
O=C(c1nc(-c2ccc(F)cc2)c2cnccn12)N1CCN(c2ncccn2)CC1	active: 25.1 µM	
O=C(Cn1ccn(-c2ccc(F)cc2)c(=O)c1=O)Nc1ccc(F)cc1	inconclusive: 50.1 µM [inhibitor, single point] and inconclusive: 39.8 µM [inhibitor, single point]	
Cc1cc(Cl)ccc1OC(C)C(=O)NN (stereo not given)		inactive: 9.77%
C=CCNC(=O)[C@@H]1CCCN1[C@@H](C(=O)NC)c1ccccc1F	inconclusive: 31.6 µM [inhibitor, single point]	
O=C1CC(c2noc(COc3ccc(Cl)cc3)n2)CN1C1CCCCC1 (stereo not given)	inconclusive: 6.31 µM [inhibitor, single point]	
O=C(Nc1cc(F)ccc1Cl)c1cc2n(n1)CC(c1ccc(Br)cc1)OC2 (stereo not given)	active: 25.1 µM	
COc1cccc(N2CCN(C(=O)c3cc4c(s3)-c3ccccc3OC4)CC2)c1	inconclusive: 15.8 µM [inhibitor, partial curve, poor fit]	
Cc1ccccc1C(=O)Nc1ccc2nc(N3CCCCC3)cc(C)c2c1	inconclusive: 28.2 µM [inhibitor, partial curve, poor fit] and inconclusive: 39.8 µM [inhibitor, single point]	
CCCc1cc(=O)[nH]c(SCc2nc(-c3ccc(OC)c(OC)c3)no2)n1		inactive: 1.54%
O=C(NCc1cccc(OC(F)F)c1)c1cccc(-n2cnnn2)c1		inactive: -11.8%
C/C(=N\NC(=O)c1cccs1)c1ccc(Br)cc1		inactive: -6.68%
N#Cc1cccc(NC(=O)Cn2nc3n(c2=O)CCCCC3)c1	inconclusive: 35.5 µM [inhibitor, single point]	
CCOC(=O)CNC(=O)c1cc2n(n1)CC(c1ccc(Br)cc1)OC2 (stereo not given)		inactive: -19.4%
CCCS(=O)(=O)c1c(S(=O)(=O)CCC)c2cc(C(C)(C)C)ccn2c1C(=O)c1ccccc1	inconclusive: 31.6 µM [inhibitor, partial curve, poor fit]	
O=C(N[C@H]1CCOC[C@H]1C1CCOCC1)c1cc2ncccn2n1	inconclusive: 25.1 µM [inhibitor, single point]	

Compound	Potency	activity change, negative = inhibition
COC(=O)c1c(NC(=O)CSc2nc3ccc(C)cc3[nH]2)sc2c1CCC2		inactive: -21.3%
CCC(=O)Nc1ccccc1-c1nc2ccccc2n(CC(=O)Nc2ccccc2OC)c1=O	inconclusive: 28.2 µM [inhibitor, single point]	
CCOC(=O)CC(NC(=O)c1cc2cc(OC)ccc2oc1=O)c1ccc(C)cc1 (stereo not given)	inconclusive: 39.8 µM [inhibitor, single point]	
Cc1onc(-c2ccccc2)c1C(=O)NC(C)CCc1ccccc1 (stereo not given)		inactive: 25.1%
CCCC(=O)OCc1cnc(C)c2oc(=O)c(C(=O)Nc3cccc(C(F)(F)F)c3)cc12	inconclusive: 25.1 µM [inhibitor, partial curve, poor fit]	
Cc1cccc(-c2cc(C(=O)Nc3cccc(C(F)(F)F)c3)[nH]n2)c1O		inactive: -1.26%
CC(C)N(C(=O)CC(C#N)(CC(=O)N(C(C)C)C(C)C)c1nc2ccccc2s1)C(C)C		inactive: 2.83%
COc1ccc(OC)c(NC(=O)COc2cc(C)cc(C)c2C)c1		inactive: 19.5%
COc1ccc(N(Cc2cccs2)C(=O)c2ccc(OC)c(Cl)c2)cc1	inconclusive: 1.41 µM [inhibitor, partial curve, poor fit]	
Cc1ccc(OCCOC(=O)C2COc3ccccc3O2)cc1 (stereo not given)		inactive: 12.2%
Cc1ccccc1NC(=O)N1CCc2c(c3cc(F)ccc3n2C)C1	active: 28.2 µM	
CCOc1cccc2cc(S(=O)(=O)c3cccc(Cl)c3)c(=O)oc12		inactive: -6.41%
CCN1CCc2c(sc(-n3cccc3)c2C(C)NC(=O)Nc2ccc(Br)cc2)C1 (stereo not given)	inconclusive: 14.1 µM [inhibitor, partial curve, poor fit]	
COc1ccc(OCCNC(=O)c2ccc3c(c2)NC(=O)CS3)cc1		inactive: -1.17%
CCN(CC)CCNC(=O)c1cc2c(=O)n(C)c3cc(Cl)ccc3c2s1	inconclusive: 2.24 µM [inhibitor, full curve, poor fit]	
COc1ccccc1-c1cc2c(nc1-c1ccccc1)nc(C(=O)NCCN(C)C)n2C	active: 31.6 µM	
COc1cccc(CN2c3ccccc3-c3nc(SCC(=O)Nc4ccccc4Cl)ncc3S2(=O)=O)c1	inconclusive: 3.55 µM [inhibitor, full curve, poor fit]	
COc1ccc(Nc2cc(C(=O)NCCCN3CCN(c4ccccc4F)CC3)c3ccccc3n2)c(OC)c1		inactive: -23.8%
Cc1ccc(-c2ccc(=O)n(CCC(=O)NCCc3ccccc3)n2)cc1	inconclusive: 25.1 µM [inhibitor, partial curve, poor fit]	
COc1cccc(CN2CCCN(S(=O)(=O)c3ccccc3)CCC(=O)NCC2)c1OC		inactive: 3.17%
O=C(CSc1ncc(-c2ccc(F)cc2)o1)Nc1ccc(O)cc1	inconclusive: 10 µM [inhibitor, partial curve, poor fit]	
CC(C)COc1ccc(C(=O)N2CCN(CCc3ccncc3)CC2)cc1	inconclusive: 31.6 µM [inhibitor, single point]	
